{
  "source": "patent US10941208B2",
  "about": "“Anti-MUC16 antibodies” (Regeneron Pharmaceuticals, Inc., priority 2016, dated 2021)",
  "key": {"[1]": {"target": "T1, Jurkat cells (human CD3-expressing) (Homo sapiens, UniProt P04234+P07766)", "T1 construct": "endogenous in cells; host or cells: Jurkat", "T1 sequence (P07766 23-207)": "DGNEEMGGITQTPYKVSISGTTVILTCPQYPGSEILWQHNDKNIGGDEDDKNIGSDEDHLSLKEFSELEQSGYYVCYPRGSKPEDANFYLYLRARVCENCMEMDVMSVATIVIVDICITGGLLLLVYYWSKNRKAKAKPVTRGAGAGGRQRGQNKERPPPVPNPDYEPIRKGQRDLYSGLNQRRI", "T1 sequence (P04234 22-171)": "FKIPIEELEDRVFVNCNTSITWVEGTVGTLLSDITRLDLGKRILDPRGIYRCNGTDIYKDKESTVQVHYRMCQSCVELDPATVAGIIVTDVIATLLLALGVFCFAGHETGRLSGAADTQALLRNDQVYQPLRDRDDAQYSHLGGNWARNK", "T1 sequence (P09693 23-182 partner)": "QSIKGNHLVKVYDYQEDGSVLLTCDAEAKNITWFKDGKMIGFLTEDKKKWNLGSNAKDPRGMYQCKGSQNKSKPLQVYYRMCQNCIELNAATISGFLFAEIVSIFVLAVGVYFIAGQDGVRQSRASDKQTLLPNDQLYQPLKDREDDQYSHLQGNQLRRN", "T1 sequence (P20963 22-164 partner)": "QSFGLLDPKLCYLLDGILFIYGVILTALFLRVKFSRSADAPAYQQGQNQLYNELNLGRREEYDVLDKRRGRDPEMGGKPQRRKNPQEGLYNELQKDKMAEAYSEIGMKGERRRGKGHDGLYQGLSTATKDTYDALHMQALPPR", "experiment": "FACS binding titration on Jurkat cells", "method": "A. Briefly, flow cytometric analysis (i.e. fluorescence-activated cell sorting, or FACS) was utilized to determine binding of bispecific antibodies to Jurkat cells or cells expressing human MUC16, followed by detection with a phycoerythrin (PE)-labeled or APC-labeled anti-human IgG antibody. Briefly, 2×10^5 cells/well were incubated for 30 minutes at 4° C. with a serial dilution ranging from 1.33E-07M to 8.03E-12M of each test antibody or isotype control (antibody of same isotype that binds a different antigen with no cross-reactivity to MUC16 or CD3). After incubation, the cells were washed twice with cold PBS containing 1% filtered FBS and a PE-conjugated or APC-conjugated anti-human secondary antibody was added to the cells and incubated for an additional 30 minutes. Wells containing no antibody or secondary only were also used as controls. After incubation, cells were washed, re-suspended in 200 μL cold PBS containing 1% filtered FBS and analyzed by flow cytometry on a BD FACS Canto II.\n(§1) B. In separate experiments with analogous conditions to that described above, flow cytometric analysis (or FACS) was utilized to determine binding of select bispecific antibodies to Jurkat cells, PEO-1, OVCAR3-Luc and cynomolgus T cells. For the titration analysis, serial dilution of selected MUC16×CD3 bispecific antibodies, a first isotype control antibody (a human chimeric IgG4 antibody that binds an irrelevant human antigen with no cross-reactivity to human or cynomolgus CD3) and a second isotype control antibody (a human chimeric IgG4 antibody that binds an irrelevant human antigen with no cross-reactivity to human MUC16), ranging from 66.6 nM to 0.001 nM.\n(§2) For FACS analysis, cells were gated by forward scatter height vs. forward scatter area for single events selection, followed by side and forward scatters. The EC50 for cell binding titration was determined using PRISM™ software (GraphPad Software, Inc., La Jolla, Calif.). Values were calculated using 4-parameter non-linear regression analysis. (Liu, J., et al. 2005, Biotechnol Letters 27:1821-1827)."}, "Cynomolgus T cells (CD3)": {"target": "T2, Cynomolgus T cells (CD3) (Macaca fascicularis, UniProt Q95LI5+Q95LI8)", "T2 construct": "cynomolgus monkey cells expressing cynomolgus CD3; endogenous in cells; host or cells: primary cynomolgus T cells", "T2 sequence (Q95LI5 22-198)": "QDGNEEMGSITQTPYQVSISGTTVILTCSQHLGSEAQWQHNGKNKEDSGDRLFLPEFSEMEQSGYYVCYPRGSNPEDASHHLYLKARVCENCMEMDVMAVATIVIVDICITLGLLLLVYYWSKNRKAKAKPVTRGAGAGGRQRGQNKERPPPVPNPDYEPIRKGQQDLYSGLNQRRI", "T2 sequence (Q95LI8 22-171)": "as the sequence (P04234 22-171) above, with I5V, N15K, I20V, S32T, D33N, I34N, T64A, S74N, V83L, H141R counted along it", "experiment": "FACS binding titration on cynomolgus T cells", "conditions": "Table 7B experiment", "from_the_text": "as §1, §2"}, "OVCAR-3/Luc": {"system": "OVCAR-3/Luc", "experiment": "OVCAR-3 model study 1 (xenogenic, BLI)", "type": "in vivo, mouse (NSG)", "conditions": "Day 6, before dosing started (baseline)", "method": "In further experiments, the in vivo efficacy of an anti-MUC16/anti-CD3 bispecific antibody was evaluated in xenogenic and syngeneic tumor models. For the first xenogenic model, NSG mice were injected intraperitoneally (IP) with OVCAR-3/Luc cells previously passaged in vivo (Day 0) eleven days after engraftment with human PBMCs. Mice were treated IP with 0.01, 0.1, or 0.5 mg/kg BSMUC16/CD3-001, or administered 0.5 mg/kg non-binding control or CD3-binding control on Days 6, 10, 13, 16, and 21. Tumor burden was assessed by BLI on Days 6, 14, and 20 post tumor implantation. […] For the second xenogenic model, NSG mice were injected with OVCAR-3/Luc cells previously passaged in vivo (Day 0) thirteen days after engraftment with human PBMCs and a second batch of PBMCs were transferred on Day 4. Mice were treated intravenously (IV) with 0.1, 0.5, 1, or 5 mg/kg BSMUC16/CD3-005 or administered 5 mg/kg non-binding control or CD3-binding control on Days 5, 8, 12, 15, 19 and 22. Tumor burden was assessed by BLI on Days 4, 11, 18 and 25. […] To examine efficacy in an immune-competent model, the murine CD3 gene was replaced with human CD3 and a portion of the mouse MUC16 gene was replaced with the human sequence. […]\nAscites cells from the OVCAR-3/Luc cell line, previously passaged in vivo, were administered IP into the NSG mice previously engrafted with human PBMCs. BLI was measured as a read-out for tumor growth several days after OVCAR-3/Luc implantation and at multiple times during study. […]\nBioluminescence imaging was used to measure tumor burden. Mice were injected IP with 150 mg/kg (as determined by body weights at the start of the experiment) of the luciferase substrate D-luciferin suspended in PBS. […] Regions of interest were drawn around each tumor mass and photon intensities were recorded as p/s/cm^2/sr. […] Statistical significance for the BLI results was determined using an unpaired nonparametric Mann-Whitney t-test. Fold changes were calculated by the formula: (Day 20-Day 6)/Day 6 for study 1 and (Day 25-Day 4)/Day 4 for study 2."}, "[2]": {"conditions": "mouse, in vivo"}, "[3]": {"target": "T3, soluble monomeric human MUC16 (hMUC16.mmh, last five SEA domains, SEQ ID: 1902) (Homo sapiens, UniProt Q8WXI7)", "T3 construct": "mmh (myc-myc-hexahistidine)", "T3 sequence (Q8WXI7 with tags, fused parts or gaps)": "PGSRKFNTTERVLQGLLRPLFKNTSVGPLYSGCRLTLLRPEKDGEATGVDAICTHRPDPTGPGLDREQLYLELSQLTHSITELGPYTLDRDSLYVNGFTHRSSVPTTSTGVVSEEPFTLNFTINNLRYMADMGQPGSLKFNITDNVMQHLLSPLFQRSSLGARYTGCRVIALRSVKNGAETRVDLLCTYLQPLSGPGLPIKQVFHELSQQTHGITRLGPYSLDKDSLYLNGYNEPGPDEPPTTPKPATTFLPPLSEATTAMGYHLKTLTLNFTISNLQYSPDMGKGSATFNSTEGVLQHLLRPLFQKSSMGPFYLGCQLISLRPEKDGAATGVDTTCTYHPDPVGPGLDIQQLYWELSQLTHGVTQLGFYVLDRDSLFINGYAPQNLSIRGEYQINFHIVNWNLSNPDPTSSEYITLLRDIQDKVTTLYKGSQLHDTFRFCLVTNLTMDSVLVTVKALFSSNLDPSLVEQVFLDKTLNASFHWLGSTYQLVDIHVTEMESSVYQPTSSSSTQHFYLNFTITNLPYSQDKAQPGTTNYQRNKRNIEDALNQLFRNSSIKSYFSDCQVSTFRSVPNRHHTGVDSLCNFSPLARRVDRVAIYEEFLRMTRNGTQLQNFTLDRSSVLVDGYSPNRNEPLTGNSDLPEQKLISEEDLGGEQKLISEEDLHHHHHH", "experiment": "Surface plasmon resonance (BIACORE) binding to hMUC16 fragment at 25° C."}, "[4]": {"target": "T4, PC3/MUC16 short (nub portion of MUC16, amino acids 13,810-14,507) (Homo sapiens, UniProt Q8WXI7)", "T4 construct": "expressed in transfected cells; host or cells: PC3/ATCC (prostate cancer line)", "T4 sequence (Q8WXI7 13810-14507 limits assumed)": "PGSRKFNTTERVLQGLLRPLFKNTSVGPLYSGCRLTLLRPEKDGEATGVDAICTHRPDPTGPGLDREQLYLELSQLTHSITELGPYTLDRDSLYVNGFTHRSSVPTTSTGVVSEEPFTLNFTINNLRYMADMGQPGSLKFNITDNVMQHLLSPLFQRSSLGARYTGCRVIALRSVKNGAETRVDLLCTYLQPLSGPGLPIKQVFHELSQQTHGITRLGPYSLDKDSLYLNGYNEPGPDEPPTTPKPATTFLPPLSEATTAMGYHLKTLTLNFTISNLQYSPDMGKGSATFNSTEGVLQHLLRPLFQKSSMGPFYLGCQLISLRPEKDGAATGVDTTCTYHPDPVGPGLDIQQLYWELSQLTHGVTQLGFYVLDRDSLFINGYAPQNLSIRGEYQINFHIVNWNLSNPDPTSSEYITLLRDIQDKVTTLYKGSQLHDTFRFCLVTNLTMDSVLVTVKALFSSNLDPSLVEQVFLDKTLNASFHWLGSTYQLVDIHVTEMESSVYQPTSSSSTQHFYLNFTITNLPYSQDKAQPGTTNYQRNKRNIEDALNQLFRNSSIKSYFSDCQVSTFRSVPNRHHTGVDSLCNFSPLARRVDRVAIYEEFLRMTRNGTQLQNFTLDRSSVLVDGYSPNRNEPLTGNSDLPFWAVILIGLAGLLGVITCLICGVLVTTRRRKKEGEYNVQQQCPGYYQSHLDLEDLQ", "experiment": "IHC staining of FFPE cell pellets: PC3/MUC16 short", "type": "binding"}, "[5]": {"conditions": "Hybridoma anti-MUC16 antibodies (H1M, H2M, H3M), Table 5A"}, "[6]": {"conditions": "Human Fc anti-MUC16 antibodies (H1H), Table 5B"}},
  "data": [
    {"molecule": "BSMUC16/CD3-002: anti-MUC16×CD3 bispecific, IgG1 Fc; H1H8767P HCVR (SEQ 18), CD3-VH-G5 (SEQ 1762), common LCVR SEQ 26 (antibody, V domains shown) VH 1: QVQLVESGGGLVKPGGSLRLSCAASGFTFSNYYMSWVRQAPGKGLEWISYISGRGSTIFYADSVKGRITISRDNAKNSLFLQMNSLRAEDTAVYFCVKDRGGYSPYWGQGTLVTVSS VH 2: EVQLVESGGGLVQPGRSLRLSCAASGFTFDDYSMHWVRQAPGKGLEWVSGISWNSGSIGYADSVKGRFTISRDNAKNSLYLQMNSLRAEDTALYYCAKDGSGYGKFYYYGMDVWGQGTTVTVSS VL: [… about 100 residues …]PITFGQGTRLEIK", "values": [
      {"measurement": "FACS binding titration EC50, Jurkat", "setting": "[1]; Table 7A experiment", "result": "Very weak"},
      {"measurement": "binding to CD3-expressing cells (FACS)", "setting": "[1]; text summary of Tables 7A and 7B, human and monkey CD3-expressing cells", "result": "weak-to-no binding"},
      {"measurement": "FACS binding titration EC50, Cynomolgus T cells", "setting": "Cynomolgus T cells (CD3)", "result": "No Binding"}
    ]},
    {"molecule": "BSMUC16/CD3-001: anti-MUC16×CD3 bispecific, IgG1 Fc; H1H8767P HCVR (SEQ 18), CD3-VH-G (SEQ 1730), common LCVR SEQ 26 (antibody, V domains shown) VH 1: QVQLVESGGGLVKPGGSLRLSCAASGFTFSNYYMSWVRQAPGKGLEWISYISGRGSTIFYADSVKGRITISRDNAKNSLFLQMNSLRAEDTAVYFCVKDRGGYSPYWGQGTLVTVSS VH 2: EVQLVESGGGLVQPGRSLRLSCAASGFTFDDYSMHWVRQAPGKGLEWVSGISWNSGSKGYADSVKGRFTISRDNAKNSLYLQMNSLRAEDTALYYCAKYGSGYGKFYHYGLDVWGQGTTVTVSS VL: [… about 100 residues …]PITFGQGTRLEIK", "values": [
      {"measurement": "Avg Radiance 6 days post-implantation (median ± SEM)", "setting": "OVCAR-3/Luc; 0.01 mg/kg group", "result": "8.77e+05 ± 7.91e+04", "unit": "p/s/cm2^2/sr"},
      {"measurement": "Avg Radiance 6 days post-implantation (median ± SEM)", "setting": "OVCAR-3/Luc; 0.1 mg/kg group", "result": "6.31e+05 ± 1.10e+05", "unit": "p/s/cm2^2/sr"},
      {"measurement": "Avg Radiance 6 days post-implantation (median ± SEM)", "setting": "OVCAR-3/Luc; 0.5 mg/kg group", "result": "7.64e+05 ± 1.19e+05", "unit": "p/s/cm2^2/sr"},
      {"measurement": "Terminal antibody concentration, fold less than BSMUC16/CD3-005", "setting": "[2]", "result": "~22", "unit": "fold"}
    ]},
    {"molecule": "H2M7138N: anti-MUC16 hybridoma antibody, mIgG2; HCVR/LCVR SEQ ID NOs: 314/322; nub binder (antibody, V domains shown) VH: QVQLVQSGAEVKKPGASVKVSCKASGYTFTSSDINWVRQATGQGLEWVGWMNPNYGYTGSARKFQDRVTMTRNTSLSTAYLELHSLRSEDTAVYYCARVTYCSSVTSCFRPFTYWGQGTLVTVSA VL: [… about 100 residues …]PITFGQGTRLEIK", "values": [
      {"measurement": "ka", "setting": "[3]; [5]", "result": 74100, "unit": "M⁻¹ s⁻¹"},
      {"measurement": "kd", "setting": "[3]; [5]", "result": "9.25e-05", "unit": "s⁻¹"},
      {"measurement": "IHC binding to cells expressing the nub portion of MUC16 without the repeat regions (PC3/MUC16 short)", "setting": "[4]", "result": "positive binding"}
    ]},
    {"molecule": "H1H8790P: anti-MUC16 antibody, human IgG1 Fc; HCVR/LCVR SEQ ID NOs: 66/74 (antibody, V domains shown) VH: EVQLVESGGGLVQPGGSLRLSCEASGFTFSNYAMSWVRQAPGKGLEWVSGMSGSGTYPYYADSVKGRFTISRDNSKNMLYLQMNSLRVKDTAVYYCAKDGVDTAMILDTFDLWGQGTMVTVSS VL: [… about 100 residues …]", "values": [
      {"measurement": "ka", "setting": "[3]; [6]", "result": 101000, "unit": "M⁻¹ s⁻¹"},
      {"measurement": "kd", "setting": "[3]; [6]", "result": 0.000761, "unit": "s⁻¹"}
    ]},
    {"molecule": "H1H8767P: anti-MUC16 antibody, human IgG1 Fc; HCVR/LCVR SEQ ID NOs: 18/26 (antibody, V domains shown) VH: QVQLVESGGGLVKPGGSLRLSCAASGFTFSNYYMSWVRQAPGKGLEWISYISGRGSTIFYADSVKGRITISRDNAKNSLFLQMNSLRAEDTAVYFCVKDRGGYSPYWGQGTLVTVSS VL: [… about 100 residues …]PITFGQGTRLEIK", "values": [
      {"measurement": "ka", "setting": "[3]; [6]", "result": 117000, "unit": "M⁻¹ s⁻¹"},
      {"measurement": "kd", "setting": "[3]; [6]", "result": 0.000418, "unit": "s⁻¹"}
    ]}
  ]
}
